As a reminder, the % Inhibition is the drop in the measured response relative to a control, in per cent.

Hit rate of the full screen: of about 150,000 compounds, about 540 (0.36%) showed an effect of 50% or more. This is one part of the list.

These results are taken from ChEMBL document CHEMBL4888484, “Replenishing the malaria drug discovery pipeline: Screening and hit evaluation of the MMV Hit Generation Library 1 (HGL1) against asexual blood stage Plasmodium falciparum ,using a nano luciferase reporter read-out” (2022).

This test concerns Plasmodium falciparum. The test can be described thus: Primary screen in NF54 nanoGlo assay, in single point, at 2uM, 72h; a lower Z score goes with more inhibition. In kind it is functional, Erythrocyte. Particulars: timepoint 72 hour.
As for `O[C@@H](Cc1ccccc1)Cn1cnnc1`, the “% Inhibition” value is reported as -6% and the Z score is 0.71.

`O=C(Cc1ccncc1)N1CCC2(CC1)NCCc1c2[nH]c2ccccc12`: the “% Inhibition” value is given as -13% and the Z score came out at 1.75.

For `O=C(NC[C@H]1CCCO1)c1ccc(S(=O)(=O)N2Cc3ccccc3C2)cc1`, the “% Inhibition” value was -18% and the Z score is on record as 1.81.

With `COc1ccccc1N1CCN(Cc2nc(C(=O)N[C@@H](C)c3ccccc3)co2)CC1`, the “% Inhibition” value is recorded as -8% and the Z score is 1.53.

For the compound `CCN(CC)c1ncc(Cl)c(C(=O)N(C)C2CCCCCC2)n1`, the “% Inhibition” value is on record as -2% and the Z score is 0.26.

In the case of `O=C(COc1ccccc1)NC1CCN(Cc2nnn3c2CO[C@H](c2ccccc2)C3)CC1`, the “% Inhibition” value is -16% and the Z score was 2.04.

In the case of `CN(Cc1nnc2n1CCC2)C(=O)c1ccsc1NC(=O)c1cccs1`, the “% Inhibition” value was -8% and the Z score amounted to 1.29.

As for `c1ccc2[nH]c(N3CCCN(c4cc(NCC5CC5)ncn4)CC3)nc2c1`, the “% Inhibition” value was -7% and the Z score is reported as 0.94.

On to `Cc1ccc(C)c(-c2nccn2[C@H]2CCNC2)c1`, for which the “% Inhibition” value is -5% and the Z score is on record as 0.97.

With `CCC(CC)NC(=O)COc1ccc(OC)cc1`, the “% Inhibition” value is -6% and the Z score is reported as 0.8.

For the compound `Cc1c(C(=O)N2CCN(S(C)(=O)=O)CC2)nnn1-c1nc2c(s1)CCCC2`, the “% Inhibition” value is -13% and the Z score amounted to 2.54.

For `CCCc1nnc(N2CCC(Oc3ccccc3OC)(C(=O)O)CC2)s1`, the “% Inhibition” value is -5% and the Z score turned out to be 0.64.

Take `O=C(NCC[C@H]1CCOC1)c1ccc(-c2ccc3cc[nH]c(=O)c3c2)cc1`: the “% Inhibition” value is -14% and the Z score was determined as 1.37.

With `O=C(O)Cn1ccc([C@H]2CCCN(C(=O)C3(N4CCCC4)CCCC3)C2)n1`, the “% Inhibition” value is reported as -14% and the Z score is given as 2.56.

As to `C[C@@H](CN(C)CCc1cc(F)cc(F)c1)N1CCOCC1`, the “% Inhibition” value is recorded as -15% and the Z score worked out at 2.13.

In the case of `C[C@H]1CCc2onc(C(=O)N3CCC(N4CCCCC4)CC3)c2C1`, the “% Inhibition” value is -3% and the Z score is given as 0.52.

For the compound `Nc1nccc(NCc2cc3n(n2)CCN(C2CCCCC2)C3)n1`, the “% Inhibition” value turned out to be 26% and the Z score is listed as -2.52.

For `CC(c1ccc(Cl)cc1)C(C)N(C)C(=O)c1cc(C(=O)O)ccn1` (centres undefined), the “% Inhibition” value is listed as -1% and the Z score is reported as 0.1.

As for `Cc1ccc(Cn2cccc2C(=O)C(=O)N2CCn3c2nc2ccccc23)cc1`, the “% Inhibition” value is -2% and the Z score was 0.34.

Regarding `Cn1ccnc(Nc2ccc3c(c2)OCCO3)c1=O`, the “% Inhibition” value is reported as -5% and the Z score is 0.61.

For `CCCc1nc2cc(CCC(=O)Nc3ccc(Br)cc3)ccc2[nH]1`, the “% Inhibition” value is listed as 1% and the Z score was -0.11.

For the compound `COCCN(Cc1ccsc1)C(=O)N[C@@H](C)Cc1ccsc1`, the “% Inhibition” value was determined as 6% and the Z score was -1.09.

For `CC(C)CC(NC(=O)C1CCCCC1C)C(=O)O` (centres undefined), the “% Inhibition” value was found to be 3% and the Z score was -0.47.

As for `Cc1cc(NC(N)=O)ccc1Br`, the “% Inhibition” value is given as -17% and the Z score is on record as 3.26.

For `CC(C)(C)C(=O)NC[C@H]1Cn2ccnc2CO1`, the “% Inhibition” value was -12% and the Z score was 1.9.

Regarding `Cc1ccc(OCCNS(=O)(=O)C2CCCCC2)cc1`, the “% Inhibition” value is -9% and the Z score is 0.93.

As for `CCOC(=O)Cc1csc(NC(=O)c2n[nH]c3c2CCC3)n1`, the “% Inhibition” value is -5% and the Z score is given as 0.62.

In the case of `Cc1nc(N2CCC[C@H]2C(=O)O)nc2ccccc12`, the “% Inhibition” value is -6% and the Z score was 0.83.

For `CC(C)NC(=O)c1nsc(C(=O)NCc2ccncc2)c1N`, the “% Inhibition” value was -15% and the Z score turned out to be 1.41.

`Cc1cc(-c2cn3cc(C(=O)N4CCCCC4)nc3c(=O)n2C)c(C)o1`: the “% Inhibition” value came to 7% and the Z score is recorded as -0.9.

As for `COC(=O)c1[nH]c(C)c(CN(C)C(=O)c2ccc(C(C)C)cc2)c1C`, the “% Inhibition” value is given as 0% and the Z score is on record as 0.04.

As for `Cc1cc(=O)c(C(=O)Nc2ccc(-n3ncc4ccccc43)cc2)c[nH]1`, the “% Inhibition” value was -9% and the Z score was determined as 1.42.

Turning to `Cn1cc(-c2noc(C3(c4cccc(Cl)c4)CCOCC3)n2)cn1`, the “% Inhibition” value is -9% and the Z score came out at 1.24.

In the case of `CCCN(C(=O)c1cn2cccnc2n1)c1ccc(Cl)cc1`, the “% Inhibition” value was determined as 3% and the Z score is listed as -0.39.

Take `CCC1(O)CCC(NC(=O)C23CCCN2CCC3)CC1` (centres undefined): the “% Inhibition” value was determined as 7% and the Z score was -1.01.

In the case of `O=C(C1CC(c2cc(F)ccc2F)=NO1)N1CCC2(CCOC2)C1` (centres undefined), the “% Inhibition” value worked out at 1% and the Z score was -0.24.

Turning to `CN1CCC(NC(=O)c2n[nH]c3c2CN(C(=O)c2cc(F)ccc2F)CC3)CC1`, the “% Inhibition” value is on record as -7% and the Z score came out at 1.14.

With `COc1cc2cc(c1)C(=O)NCCCC(=O)N[C@H]1CN(Cc3cc(C4CC4)n[nH]3)CC[C@@H]1OCc1cccc(c1)O2`, the “% Inhibition” value is recorded as -10% and the Z score is listed as 1.94.

In the case of `CC(C)CC1CC(C(=O)N2CCC(OCC3CCCO3)CC2)CC(=O)N1` (centres undefined), the “% Inhibition” value amounted to 1% and the Z score is given as -0.12.

As for `O=C(Cc1n[nH]c(=O)c2cc(-c3ccc(F)cc3)nn12)NCCc1ccccc1`, the “% Inhibition” value is recorded as -3% and the Z score is recorded as 0.44.

In the case of `CCOc1cc(C(=O)NCC(F)(F)F)ncn1`, the “% Inhibition” value is -7% and the Z score is listed as 1.41.

In the case of `O=C(NCCc1nc(O)cc(O)n1)[C@H]1CCOc2ccccc2C1`, the “% Inhibition” value is -9% and the Z score was 1.43.
